Assay results: PubChem BioAssay AID686978 (National Center for Advancing Translational Sciences (NCATS), 2013)
The whole screen tested about 420,000 compounds, of which about 64,000 (15%) were called active. Inconclusive means that the source gave no clear call. Such entries were picked first, then a sample of the others. Calls follow the shape of the dose curve; as a rule, active = well fitted inhibition curve with a large enough effect; inconclusive = small, poorly fitted or top-dose-only effect; inactive = flat fitted curve, though single readings scatter. No potency is given beside an inconclusive call; the fits are too rough.

test: qHTS for Inhibitors of human tyrosyl-DNA phosphodiesterase 1 (TDP1): qHTS in cells in absence of CPT; conditions: DT40 Tdp1-/- hTDP1 cells, no CPT, ATP luminescence, 48 h; series mostly up to 46.2 µM; also: nearly all actives have a fitted effect of over 55% in size
Procedure, shortened: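 Camptothecin absent (DMSO only). Human TDP1-complemented DT40 knockout cells, 400 cells/well, 37 °C for minimum 48 hr; ATP measured via CellTiter-Glo, 30 min dark incubation, luminescence.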
Potency is read from the fitted curve at half-maximal effect; tags tell the direction and shape of the fitted curve.

Compound | Potency
O=C(N/N=C\c1cc(Br)cs1)C1COc2ccccc2O1 (stereo not drawn) | inconclusive [inhibitor, single point]
COc1ccc(CCC(=O)NCc2ccccc2OC)cc1 | inactive
CCOC(=O)c1c(N)sc(C(=O)Nc2ccccc2F)c1C | inconclusive [inhibitor, single point]
Cc1cccc2cc(C#N)c(NCCCNS(=O)(=O)c3ccc(Cl)cc3)nc12 | inconclusive [inhibitor, single point]
COc1ccc(CN(C)C(=O)c2[nH]c(C)c(C(C)=O)c2C)c(OC)c1OC | inconclusive [inhibitor, partial curve]
CCc1ccc(CN(C)C(=O)c2cc(=O)c3ccccc3o2)cc1 | inactive
CCCCOc1ccc(CSc2n[nH]c(C)n2)cc1 | inconclusive [inhibitor, partial curve, poor fit]
O=C(c1ccco1)N1CCC2(CC1)CN(Cc1cc(C(F)(F)F)cc(C(F)(F)F)c1)C2 | inactive
COc1cccc(C(=O)Nc2ccc3c(c2)n(C)c(=O)n3C)c1 | inconclusive [inhibitor, single point]
Cc1csc(Nc2ccc(C(=O)O)cc2)n1 | inactive
CC(C(=O)NCCc1ccc(Cl)cc1)n1c(=O)c2cccn2c2cccnc21 (stereo not drawn) | active: 18.4 µM
CCCCN(CC)CCNC(=O)C1CCN(c2nnc(C)c3c(C)n(-c4ccc(C)cc4)nc23)CC1 | active: 20.6 µM
COc1cccc(/C=C/C(=O)OCC(=O)c2c[nH]c3ccccc23)c1OC | inconclusive [inhibitor, single point]
CCOc1ccccc1NC(=O)C(OC(=O)C1CC1)c1ccccc1 (stereo not drawn) | inactive
NS(=O)(=O)c1ccc(NC(=O)CCC(=O)c2ccc(Cl)s2)cc1 | inactive
COc1ccc(-n2c(C)cc(/C=C3\C(=N)N4N=C(CC(=O)N5CCOCC5)SC4=NC3=O)c2C)cc1 | inactive
Cc1ccc(Cn2ncc3c(NCCN(C)C)ncnc32)cc1 | inactive
COc1cc(Br)c(CN2CCCN(C)CC2)cc1OC | inconclusive [inhibitor, single point]
Cn1c(=O)c2c(nc(NCc3ccccc3)n2CC(=O)NCc2ccccc2)n(C)c1=O | inactive
CSCCC(NS(=O)(=O)c1ccc(C)cc1)C(=O)NC1CCCCCC1 (stereo not drawn) | active: 20.6 µM
COc1ccc(-c2nc(C)sc2CC(=O)O)cc1 | inactive
CCCCCC(=O)N1C[C@@H](O)[C@H](n2cc(COC(=O)c3ccccc3)nn2)C[C@@H]1c1ccccc1 | inconclusive [inhibitor, single point]
O=C(NNC(=O)C12CC3CC(CC(C3)C1)C2)c1csc(N2CCOCC2)n1 | inconclusive [inhibitor, single point]
COc1ccc(CCNC(=O)C2CC3Cn4c(nc5ccccc54)C3N2Cc2ccccc2)cc1 (stereo not drawn) | active: 18.4 µM
CO[C@@H]1[C@@H](OC2OC(C)C(OC3CC(C)(O)C(OC(=O)CC(C)C)C(C)O3)C(N(C)C)C2O)[C@@H](CC=O)C[C@@H](C)C(=O)/C=C\C2O[C@H]2C[C@@H](C)OC(=O)C[C@H]1OC(C)=O (stereo partly drawn) | active: 3.16 µM

Compound | Potency
COCCNC(=O)c1cc2c(c(-c3cccc(-c4cccc(OC)c4)c3)n1)[C@H](CCO)N(S(=O)C(C)(C)C)C2 (stereo partly drawn) | inconclusive [inhibitor, single point]
CCOc1ccccc1CNC(=O)C1CCN(C(=O)c2sccc2-n2cccc2)CC1 | inconclusive [inhibitor, single point]
Cc1cc(C)c(C)c(S(=O)(=O)N2CCN(C(=O)CCC(=O)N3CCOCC3)CC2)c1C | inactive
COc1ccc(C(C#N)(CC(=O)O)c2cnccn2)cc1OC (stereo not drawn) | inactive
O=C1CCCN1CCCNc1ncnc2c1[nH]c1ccc(Cl)cc12 | inconclusive [inhibitor, partial curve]
C/C(=N\Nc1nc(-c2ccc(C)cc2C)cs1)c1cc2ccccc2oc1=O | inconclusive [inhibitor, single point]
CC(C)N(Cc1ccccc1)C(=O)c1ccc2nsnc2c1 | active: 20.6 µM
CCOc1ccc(NC(=O)Nc2ccc3c(c2)N(C)C(=O)CS3)cc1 | inconclusive [inhibitor, single point]
COc1ccc(NC(=O)CN(C)C(=O)C23CC4CC(CC(C4)C2)C3)cc1 | inconclusive [inhibitor, single point]
Cc1[nH]c2ccc(CNS(=O)(=O)c3ccc(S(=O)(=O)N4CCOCC4)cc3)cc2c1C | inactive
Cn1c(-c2ccsc2)c(-c2cccs2)c2cc(-c3cccc4[nH]ccc34)ccc21 | inconclusive [inhibitor, single point]
Cc1ccc(NC(=S)c2nc3ccccc3[nH]2)c(C)c1 | inconclusive [inhibitor, single point]
COc1ccc(NC(=S)N2CCCC2c2ccc(OC)c(OC)c2)cc1 (stereo not drawn) | inactive
O=C(Nc1ncc(Cc2ccccc2Cl)s1)C1=NCCN1 | inconclusive [inhibitor, single point]
COc1cc(/C=N/NC(=O)c2c(C)nc3ccc(Cl)cn23)cc(OC)c1OC | inconclusive [inhibitor, single point]
Fc1ccc(C2CCCCN2Cc2nc(CC3CC3)no2)cc1 (stereo not drawn) | inconclusive [inhibitor, single point]
O=C(/C=C/c1ccccc1)c1ccc2c(c1)OCCCCO2 | inconclusive [inhibitor, partial curve]
COc1ccc(Cl)cc1NC(=O)Cn1c(=O)oc2ccccc21 | inconclusive [inhibitor, single point]
CCCCN(C)C(=O)c1cc2cc3ccc(OC)cc3nc2s1 | inconclusive [inhibitor, single point]
O=C(Cn1ncc2c1-c1ccccc1OC2)N(Cc1ccco1)C1CCCCC1 | inconclusive [inhibitor, single point]
O=C(CSc1nc2ccccc2o1)Nc1ccc(N2CCOCC2)c(Cl)c1 | inconclusive [inhibitor, partial curve]
Cc1ccc(-n2nc(C)c3c(C(=O)O)cc(C)nc32)cc1 | inactive
O=C(CCN1C(=O)/C(=C\c2ccccc2)SC1=S)N1CCOCC1 | active: 10.3 µM
CSCC(C)N1CCC(N2CCC(C(=O)NCc3ccccn3)CC2)CC1 (stereo not drawn) | inactive
CCCCNCC1CCCO1 (stereo not drawn) | inconclusive [inhibitor, single point]

Compound | Potency
CC(=O)Nc1ccc(Nc2nc(C(F)(F)F)nc3c2nnn3Cc2ccccc2Cl)cc1 | inactive
O=C(CCS(=O)(=O)c1cccc2nonc12)Nc1cccc(F)c1 | inactive
O=C1N=c2ccccc2=C1c1sc(=S)n(NC(=O)c2ccccc2)c1O | inconclusive [inhibitor, single point]
Cc1ccc(-c2nnc(N3CCN(c4ccccn4)CC3)c3ccccc23)cc1 | inconclusive [inhibitor, single point]
O=[N+]([O-])c1cccc(-c2nnc3ccccn23)c1 | inactive
Cc1cccc(C)c1OCCn1c(C2CC(=O)N(Cc3ccc(F)cc3)C2)nc2ccccc21 (stereo not drawn) | active: 18.4 µM
O=C1c2ccccc2C(=O)N1/N=C/c1ccc(O)c(O)c1O | inconclusive [inhibitor, single point]
O=C(Nc1ccccc1Cl)N1CCN(c2ccccn2)CC1 | inactive
CCOC(=O)C1CCCN(C(=O)CCNS(=O)(=O)c2ccc(Br)cc2)C1 (stereo not drawn) | inconclusive [inhibitor, single point]
Nc1c2c(nc3ccccc13)N(C1CCCCC1)CC2 | inconclusive [inhibitor, single point]
CC(Sc1nc2ccccc2[nH]1)C(=O)Nc1ccc2c(c1)OCCO2 (stereo not drawn) | inconclusive [inhibitor, single point]
Cc1ccc(-n2ccc(=O)c(C(=O)O)n2)cc1 | inactive
COc1ccc(C(C(=O)NC2CCCC2)N(C(=O)c2ccco2)c2ccccc2OC)cc1 (stereo not drawn) | inconclusive [inhibitor, partial curve]
CNS(=O)(=O)c1cc(-c2nnc(Nc3ccc(NC(C)=O)cc3)c3ccccc23)ccc1C | active: 18.4 µM
N#CCC(=O)Nc1ccc(C(=O)Nc2cccc(S(=O)(=O)N3CCCC3)c2)cc1 | inactive
Cc1ccc2c(c1)c1c3n2CCCN(Cc2ccccc2)C3CCC1 (stereo not drawn) | inconclusive [inhibitor, single point]
O=C(CSc1nc(=O)[nH]c2c1CCC2)NCc1ccc(Cl)cc1 | inactive
COC(=O)[C@]12CCCCC=C1N(Cc1ccc(Cl)cc1Cl)C(=O)[C@H](CC(=O)NCCCCc1ccccc1)C2 | inconclusive [inhibitor, single point]
S=C(NCCCN1CCOCC1)Nc1ccc(-c2nc3ccccc3[nH]2)cc1 | inconclusive [inhibitor, single point]
COc1ccc(/C=C/C(=O)Nc2ccc(OC)nc2)cc1 | inconclusive [inhibitor, single point]
CC(=O)/C(=N\Nc1ccccc1Cl)Sc1nnc(-c2ccccc2)n1-c1ccccc1 | inconclusive [inhibitor, single point]
Cc1noc2ncnc(N3CCN(c4ccccc4F)CC3)c12 | active: 23.1 µM
CS(=O)(=O)N1CCN(c2ccccc2NC(=O)c2ccc3c(c2)OCCO3)CC1 | inconclusive [inhibitor, partial curve, poor fit]
